From publication PMC6212790
The other results are listed elsewhere or left out. At the low end of the ranking, values are background and their order means little.

The sequences below were run against T1, GST-Rok-C97-191 (UniProt O34857) (assay: protein binding microarray). Conditions: Rok is a gene silencer of Bacillus subtilis; high values mean tight binding; most listed sequences are background and not binding sites; double strand, one strand shown.
T1 sequence: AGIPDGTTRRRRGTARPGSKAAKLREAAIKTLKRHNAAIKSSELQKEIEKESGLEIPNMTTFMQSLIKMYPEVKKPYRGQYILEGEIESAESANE
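Further: rank score from −0.5 (least bound) to 0.5 (best bound).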

Sequence | binding signal [E-score]
AACAGGAG | -0.0395
ATGCAAAG | -0.14
CGATCCCA | -0.00235
GTAGAAAC | 0.435
TACCTACA | 0.269
TCCAAGCA | -0.0894
AGCCCAAT | -0.00808
ATAAGACC | -0.0211
TATGTGAA | 0.236
AATGGCAC | -0.0703
ACAAGGTA | 0.102
CACAGGTA | -0.0357
CGCCAACC | -0.101
ACCTAGCT | -0.0218
GACTGGCC | -0.129
AACAGTGA | 0.0105
ATCAGCTG | 0.00405
CAGTTCGA | 0.0164
CCTTTGAC | -0.154
GCTCGTCC | -0.393
AGGGAGGC | -0.385
CGGACAAG | -0.129

Sequence | binding signal [E-score]
AATCCAAG | 0.186
CCTGAAAG | -0.277
CGGCAAGC | -0.124
ACGCGGTA | -0.00743
ACTAATCG | 0.147
CTGTTTCC | -0.0324
TGACCCAA | -0.13
GATATATA | 0.358
GGCTTCTA | 0.11
GTATTGGA | 0.0594
AATACGCT | -0.133
CAAGCAAA | -0.0617
CGATCAGC | -0.21
CGAGTCAA | -0.132
CGGCCTAG | -0.148
GGTCCGCA | -0.0427
CCGGGAGA | -0.199
CGATAAAG | 0.058
AGCGCGTA | 0.0748
CCGGTAAA | 0.161
CCCTGGAC | -0.252
CTATCGTC | 0.0749

Sequence | binding signal [E-score]
CGAGTATC | 0.0674
GACCAATA | -0.138
CTATACAA | 0.3
AATCGCCG | -0.005
ACACGCTG | -0.145
ATTATATA | 0.446
TGCTTTAA | -0.0993
GGCCTGAC | -0.247
ACGCAACG | -0.0768
ACGGAATA | 0.137
GAGGCACC | -0.182
CTTGCCCC | -0.127
ACTCCTAC | 0.158
AACTGCTC | 0.0471
TAAGCCGA | -0.00989
ACAATCAG | -0.0199
CAGGGCTA | -0.0484
CGGGTACC | -0.0812
GAAAGCCA | -0.228
CCGCGATC | -0.101
CCGACACC | -0.191
AACTCGCC | -0.127

Sequence | binding signal [E-score]
CCAATACG | -0.068
CGTTATTC | 0.0136
ATCTACGA | 0.333
CGATGCCG | -0.121
CTAGTCAC | 0.162
ATCAAGTC | -0.0524
ACCTTCCG | -0.0992
CCACGTAG | -0.0519
CGCCAACG | -0.3
TCGATGAA | 0.00457
CGTTCAGC | -0.293
CTCGACCC | -0.329
TATAGTGA | 0.199
AGATCCTC | -0.14
AACGCTGA | 0.0575
ACCGTAAC | 0.183
TTGTTAAA | 0.0419
ACGGATGA | 0.00454
ATCTAGTA | 0.31
CAGTTCGG | -0.00109
